Results are given in words; binding and its absence hold for the method and conditions named. In cells and extracts the contact can be indirect. Some entries that bind do so weakly or less than the wild type.
T1: SMARCAD1 (endogenous, mouse ESCs) (mouse (endogenous in 46C ESCs)) (UniProt Q04692)
T1 sequence: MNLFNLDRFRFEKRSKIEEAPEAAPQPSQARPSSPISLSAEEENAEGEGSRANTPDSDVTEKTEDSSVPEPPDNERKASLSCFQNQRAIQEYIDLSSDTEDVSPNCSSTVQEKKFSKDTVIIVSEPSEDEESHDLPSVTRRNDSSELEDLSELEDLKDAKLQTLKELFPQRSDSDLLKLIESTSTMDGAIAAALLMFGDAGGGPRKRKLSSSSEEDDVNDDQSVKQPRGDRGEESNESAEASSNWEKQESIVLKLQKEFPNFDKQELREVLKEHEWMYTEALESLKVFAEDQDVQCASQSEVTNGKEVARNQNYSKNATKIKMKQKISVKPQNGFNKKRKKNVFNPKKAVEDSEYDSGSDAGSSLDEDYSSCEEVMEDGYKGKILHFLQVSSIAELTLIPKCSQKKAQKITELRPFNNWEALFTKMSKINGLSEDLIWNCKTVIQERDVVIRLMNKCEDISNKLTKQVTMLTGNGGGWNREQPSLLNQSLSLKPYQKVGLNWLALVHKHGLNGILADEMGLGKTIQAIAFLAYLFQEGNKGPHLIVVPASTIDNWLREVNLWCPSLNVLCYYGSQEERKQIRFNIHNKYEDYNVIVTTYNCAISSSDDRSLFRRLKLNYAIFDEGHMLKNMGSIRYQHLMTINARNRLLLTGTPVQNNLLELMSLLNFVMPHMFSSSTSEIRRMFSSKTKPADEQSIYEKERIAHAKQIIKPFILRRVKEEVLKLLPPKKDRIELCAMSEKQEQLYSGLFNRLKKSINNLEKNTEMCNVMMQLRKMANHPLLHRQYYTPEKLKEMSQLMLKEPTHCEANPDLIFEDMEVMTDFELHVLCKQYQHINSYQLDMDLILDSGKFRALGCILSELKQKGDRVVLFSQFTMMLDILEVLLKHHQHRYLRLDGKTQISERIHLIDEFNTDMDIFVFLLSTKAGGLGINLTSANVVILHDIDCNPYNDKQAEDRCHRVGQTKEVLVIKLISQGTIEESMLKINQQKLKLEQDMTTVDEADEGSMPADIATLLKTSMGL

Protein sequences, listed by entry. Tags and fused reporters are not part of them.
UniProt Q9CW03: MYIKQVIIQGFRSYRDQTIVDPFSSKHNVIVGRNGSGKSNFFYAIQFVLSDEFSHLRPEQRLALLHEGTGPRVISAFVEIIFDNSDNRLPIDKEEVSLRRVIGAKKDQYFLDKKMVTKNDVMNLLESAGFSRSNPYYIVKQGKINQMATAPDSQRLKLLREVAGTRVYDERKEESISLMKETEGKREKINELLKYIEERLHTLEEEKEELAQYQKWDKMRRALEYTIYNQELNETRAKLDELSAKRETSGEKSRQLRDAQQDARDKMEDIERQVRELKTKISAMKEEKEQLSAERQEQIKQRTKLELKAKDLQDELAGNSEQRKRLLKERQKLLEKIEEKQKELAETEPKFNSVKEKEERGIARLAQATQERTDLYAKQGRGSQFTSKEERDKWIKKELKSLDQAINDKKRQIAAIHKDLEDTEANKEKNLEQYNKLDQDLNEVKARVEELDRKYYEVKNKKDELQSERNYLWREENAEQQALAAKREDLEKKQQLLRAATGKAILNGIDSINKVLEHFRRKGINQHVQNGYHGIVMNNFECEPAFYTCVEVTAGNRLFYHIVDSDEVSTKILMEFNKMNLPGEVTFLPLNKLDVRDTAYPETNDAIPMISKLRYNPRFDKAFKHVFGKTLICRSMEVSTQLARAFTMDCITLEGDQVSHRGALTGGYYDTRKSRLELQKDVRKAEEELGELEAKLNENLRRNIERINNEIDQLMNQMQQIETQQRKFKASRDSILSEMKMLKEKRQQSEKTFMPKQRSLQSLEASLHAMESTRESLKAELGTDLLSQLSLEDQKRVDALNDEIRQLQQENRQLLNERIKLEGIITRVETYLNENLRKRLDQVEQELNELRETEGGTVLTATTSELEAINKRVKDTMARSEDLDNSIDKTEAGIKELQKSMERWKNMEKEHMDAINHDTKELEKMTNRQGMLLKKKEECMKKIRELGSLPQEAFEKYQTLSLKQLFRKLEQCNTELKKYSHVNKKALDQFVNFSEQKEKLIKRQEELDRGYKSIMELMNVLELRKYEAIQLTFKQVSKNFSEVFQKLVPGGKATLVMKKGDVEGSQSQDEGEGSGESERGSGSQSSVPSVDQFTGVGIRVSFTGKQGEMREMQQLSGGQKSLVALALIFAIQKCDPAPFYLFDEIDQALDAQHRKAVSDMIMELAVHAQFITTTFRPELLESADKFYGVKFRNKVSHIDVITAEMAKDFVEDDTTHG
UniProt Q8K284: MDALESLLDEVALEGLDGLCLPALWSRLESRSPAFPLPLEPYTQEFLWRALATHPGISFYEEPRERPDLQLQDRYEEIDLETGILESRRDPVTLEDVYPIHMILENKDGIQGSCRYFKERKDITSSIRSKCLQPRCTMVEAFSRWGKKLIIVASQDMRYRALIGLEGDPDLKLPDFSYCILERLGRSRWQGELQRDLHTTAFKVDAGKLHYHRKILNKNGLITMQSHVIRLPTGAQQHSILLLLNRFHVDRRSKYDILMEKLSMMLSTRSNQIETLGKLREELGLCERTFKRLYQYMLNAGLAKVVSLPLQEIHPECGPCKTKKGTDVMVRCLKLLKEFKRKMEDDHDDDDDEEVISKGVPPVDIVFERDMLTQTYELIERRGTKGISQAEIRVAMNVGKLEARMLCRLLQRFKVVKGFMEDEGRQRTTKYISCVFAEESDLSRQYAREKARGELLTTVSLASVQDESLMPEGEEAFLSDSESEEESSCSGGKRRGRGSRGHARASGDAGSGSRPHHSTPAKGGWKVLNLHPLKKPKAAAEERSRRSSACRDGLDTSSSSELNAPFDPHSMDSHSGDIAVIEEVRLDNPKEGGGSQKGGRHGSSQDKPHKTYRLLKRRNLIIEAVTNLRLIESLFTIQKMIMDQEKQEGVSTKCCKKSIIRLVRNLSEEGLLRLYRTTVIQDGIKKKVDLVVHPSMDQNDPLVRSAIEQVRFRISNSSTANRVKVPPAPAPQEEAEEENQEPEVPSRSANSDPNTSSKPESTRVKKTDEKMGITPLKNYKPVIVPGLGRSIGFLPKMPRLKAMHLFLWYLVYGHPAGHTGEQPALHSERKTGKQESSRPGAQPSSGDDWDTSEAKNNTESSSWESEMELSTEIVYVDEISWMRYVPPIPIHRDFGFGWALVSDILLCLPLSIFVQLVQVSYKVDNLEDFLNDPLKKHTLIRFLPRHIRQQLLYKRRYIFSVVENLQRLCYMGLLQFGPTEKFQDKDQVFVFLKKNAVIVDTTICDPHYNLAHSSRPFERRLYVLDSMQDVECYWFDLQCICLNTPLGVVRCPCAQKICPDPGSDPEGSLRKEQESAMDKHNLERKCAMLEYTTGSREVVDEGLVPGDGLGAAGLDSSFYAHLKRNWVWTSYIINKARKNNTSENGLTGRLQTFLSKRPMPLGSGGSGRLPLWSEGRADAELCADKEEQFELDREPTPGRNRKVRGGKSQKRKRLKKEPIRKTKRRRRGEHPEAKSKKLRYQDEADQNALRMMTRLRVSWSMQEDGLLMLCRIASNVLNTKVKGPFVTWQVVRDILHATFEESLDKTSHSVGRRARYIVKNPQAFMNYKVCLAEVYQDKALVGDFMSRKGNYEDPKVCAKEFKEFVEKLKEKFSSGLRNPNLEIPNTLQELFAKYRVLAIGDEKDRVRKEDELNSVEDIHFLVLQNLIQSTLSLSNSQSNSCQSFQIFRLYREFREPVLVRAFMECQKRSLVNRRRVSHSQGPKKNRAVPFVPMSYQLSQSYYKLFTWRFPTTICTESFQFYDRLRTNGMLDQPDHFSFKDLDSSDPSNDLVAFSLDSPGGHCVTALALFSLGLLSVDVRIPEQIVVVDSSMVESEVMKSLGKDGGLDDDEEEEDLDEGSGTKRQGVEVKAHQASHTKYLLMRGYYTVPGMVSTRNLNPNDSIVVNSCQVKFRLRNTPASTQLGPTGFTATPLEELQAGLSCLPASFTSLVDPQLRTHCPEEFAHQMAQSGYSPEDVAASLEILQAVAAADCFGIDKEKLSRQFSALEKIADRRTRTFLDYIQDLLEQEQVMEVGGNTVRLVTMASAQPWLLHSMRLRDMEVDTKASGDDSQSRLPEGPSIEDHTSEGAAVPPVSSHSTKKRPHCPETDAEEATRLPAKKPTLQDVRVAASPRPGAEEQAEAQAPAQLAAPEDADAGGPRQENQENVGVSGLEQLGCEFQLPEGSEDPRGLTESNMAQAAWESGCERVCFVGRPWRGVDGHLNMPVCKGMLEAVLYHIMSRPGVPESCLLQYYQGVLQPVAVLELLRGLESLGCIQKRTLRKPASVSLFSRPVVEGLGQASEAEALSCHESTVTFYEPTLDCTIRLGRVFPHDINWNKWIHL

B1: TFIIIC102 (endogenous, mouse ESCs) (protein, UniProt Q3TMP1 1-882)
chain: MSGFSPELIDYLEGKISFEEFERRREERKTREKKSVQEKGKSSPKENPDDSEVPSSSGIDSAKSQDKDANEGETSDGVSKSVHKVFASMLGETEDDEEEEEEEEEEETAEQPTAGDVFVLEMVLNRETKKMMKEKRPRSKLPRALRGLMGEANIRFARGEHEEAILMCMEIIRQAPLAYEPFSTLAMIYEDQGDMEKSLQFELIAAHLNPSDTEEWVRLAEMSLEQDNIKQAIFCYTKALKYEPTNVRYLWERSSLYEQMGDHKMAMDGYRRILNLLSPSDGERFMQLARDMAKSYYEANDSASAINIIEEAFSKHQGLVSMEDVNIAAELYISNKQYDKALEVITDFSGIILEKETLEEGTSEENKAAETVTCSIPDSVPIDITVKLMVCLVHLNILEPLNPLLTTLVEQNPEDMGDLYLDVAEAFLDVGEYNSALPLLSALVCSERYNLAVVWLRHAECLKALGYMERAAESYSKVVDLAPLHLDARISLSILQQQLGRPEKALEALEPMYDPDTLAQDANAAQQELKLLLHRSTLLFSQGKMYGYLDTLLTMLAMLLKVAMNRAQVCLISSSKSGERHLYLIKVSRDKISDNNEQETSNYDAKAIFAVLTSVLPKEDWWNLLLKAIYTLSDLARFQEAELLVDSSLEYYSFYDDRQKRKELEYFGLSAAILDKNFRKAYDYIRVMVMENVNKPQLWNIFNQVTMHSQDVRHHRFCLRLMLKNPDNHALCVLNGHNAFVSGSFKHALGQYVQAFRAYPSEPLYNLCIGLTFIHMASQKYVLKRHALTVQGFSFLNRYLSIRGPCQESFYNLGRGLHQLGLTHLAIHYYQKALALPPLVVEGIEVDQLDLRRDIAYNMSLIYQSSGNTAMAQKLLYTYCVI
B2: TFIIIC90 (endogenous, mouse ESCs) (protein, UniProt Q8BMQ2 1-817)
chain: MSEADQALVGPKADEPSPPAEEKDEGGGKEAAADAAPGPSASFRLMVTRREPAVKLQYAVSGLEPLSWSEDHRVSVSTARSVAVLELICDVHNPGQDLVIHRTSVPAPLNSCLLKVGSKTEVAECKEKFASSKDPTISQTFMLDRMFNPEGKALPPMRGFKYTSWSPMGCDANGRCLLAALTMDNRLTVQVNLNRLQWVQLVDLTEIYGDRLYETSYRLSKNEAPEGNLGDFAEFQRRHSMQTPVRMEWSSICTTQQVKHNNECRDVSSVLLAVLFENGNIAVWQFQLPFVGKESISSCNTIESGISSPSVLFWWEYEHNNRKMSGLIVGSAFGPVKILPVNLKAVKGYFTLRQPVVLWKEMDKLPVHSIKCVPLYHPYQKCSCSLVVAARGSYVFWCLLLISKAGLNVHNSHVTGLHSLPIVSITADKQNGTVYTCSSDGKVRQLIPIFTDVALKFEHQLIKLSDVFGSVRTHGIAVSPCGAYLAIITTEGMMNGLHPVNKNYQVQFVTLKTFEEAAAQLLESSVQNLFKQVDLIDLVRWKILKDKHIPQFLHEALEKKIESSGVTYFWRFKLFLLRILYQSMQKSPSEALWKPTHEDSKILLVDSPGMGDGEDEQQEEGTSKQGTKAGLQEKSKEGDTEETPEDSLTAGGDTGGREPVEEKLLEIQGKIEAVEMHLTREHMKRVLGEVYLHTWITENTSIPTRGLCNFLMSDEDYDDRTAQVLIGHISKKMNKQTFPERCSLCKEILPFTDRKQAVCSNGHIWLRCFLTYQSCQSLIYRRCLLHDSIARHPVPEDPDWIKRLLQSPCPFCDSPVF
B3: TFIIIC63 (endogenous, mouse ESCs) (protein, UniProt Q8R2T8 1-520)
chain: MAAAEPDADPKAAIPVDLRRERRLVCVEYPGVVRNEAKMLQTLGGEESVSRIYTDPTKRLELYFRPKDPYCHPVCANRFSTSSLLLRIRKRTRRRRGVLGDEAHPQVTFNLEIIGIISTIYKFQGMSDFQYLAVHTEAGGKHVSMYDRVLMRKPEKEEFFHQELPLYIPPPIFSRLDTPVDYFYRPETQHREGYHNPTISGENLIGLSRARRPHNAIFVNFEDTEVPEQPLEAAVQTWKKACTNPIDQKVEEELRKLFDIRPVWSRNAVKSNVSVHPDKLKILLPYMAYYMITGPWRSLWIRFGYDPRKHPDAKIYQVLDFRIRCGMKYGYGSRDMPVKAKRSTYNYSLPITVKKTSNQPGTMHDLKQGLGPSGTDGPRKLTYNKYKLKDSVYIFREGALPPYRQMFYQLCDLNVEELQKIVHRNDGTETVCTERDGWCLPKTTDHLRDTMSLMILQTIRSERPALFSNTGKADRGKEQLMFESGEEEEEEEEEEEEEEEDFKPSDGSENEMETEILDYV
B4: SMC1A (endogenous, mouse ESCs) (protein, UniProt Q9CU62 1-1233)
chain: MGFLKLIEIENFKSYKGRQIIGPFQRFTAIIGPNGSGKSNLMDAISFVLGEKTSNLRVKTLRDLIHGAPVGKPAANRAFVSMVYSEEGAEDRTFARVIVGGSSEYKINNKVVQLHEYSEELEKLGILIKARNFLVFQGAVESIAMKNPKERTALFEEISRSGELAQEYDKRKKEMVKAEEDTQFNYHRKKNIAAERKEAKQEKEEADRYQRLKDEVVRAQVQLQLFKLYHNEVEIEKLNKELASKNKEIEKDKKRMDKVEDELKEKKKELGKMMREQQQIEKEIKEKDSELNQKRPQYIKAKENTSHKIKKLEAAKKSLQNAQKHYKKRKGDMDELEKEMLSVEKARQEFEERMEEESQSQGRDLTLEENQVKKYHRLKEEASKRAATLAQELEKFNRDQKADQDRLDLEERKKVETEAKIKQKLREIEENQKRIEKLEEYITTSKQSLEEQKKLEGELTEEVEMAKRRIDEINKELNQVMEQLGDARIDRQESSRQQRKAEIMESIKRLYPGSVYGRLIDLCQPTQKKYQIAVTKVLGKNMDAIIVDSEKTGRDCIQYIKEQRGEPETFLPLDYLEVKPTDEKLRELKGAKLVIDVIRYEPPHIKKALQYACGNALVCDNVEDARRIAFGGHQRHKTVALDGTLFQKSGVISGGASDLKAKARRWDEKAVDKLKEKKERLTEELKEQMKAKRKEAELRQVQSQAHGLQMRLKYSQSDLEQTKTRHLALNLQEKSKLESELANFGPRINDIKRIIQSREREMKDLKEKMNQVEDEVFEEFCREIGVRNIREFEEEKVKRQNEIAKKRLEFENQKTRLGIQLDFEKNQLKEDQDKVHMWEQTVKKDENEIEKLKKEEQRHMKIIDETMAQLQDLKNQHLAKKSEVNDKNHEMEEIRKKLGGANKEMTHLQKEVTAIETKLEQKRSDRHNLLQACKMQDIKLPLSKGTMDDISQEEGSSQGEESVSGSQRTSSIYAREALIEIDYGDLCEDLKDAQAEEEIKQEMNTLQQKLNEQQSVLQRIAAPNMKAMEKLESVRDKFQETSDEFEAARKRAKKAKQAFEQIKKERFDRFNACFESVATNIDEIYKALSRNSSAQAFLGPENPEEPYLDGINYNCVAPGKRFRPMDNLSGGEKTVAALALLFAIHSYKPAPFFVLDEIDAALDNTNIGKVANYIKEQSTCNFQAIVISLKEEFYTKAESLIGVYPEQGDCVISKVLTFDLTKYPDANPNPNEQ
B5: laminB1 (endogenous, mouse ESCs) (protein, UniProt P14733 1-588)
chain: MATATPVQQQRAGSRASAPATPLSPTRLSRLQEKEELRELNDRLAVYIDKVRSLETENSALQLQVTEREEVRGRELTGLKALYETELADARRALDDTARERAKLQIELGKFKAEHDQLLLNYAKKESDLSGAQIKLREYEAALNSKDAALATALGDKKSLEGDLEDLKDQIAQLEASLSAAKKQLADETLLKVDLENRCQSLTEDLEFRKNMYEEEINETRRKHETRLVEVDSGRQIEYEYKLAQALHEMREQHDAQVRLYKEELEQTYHAKLENARLSSEMNTSTVNSAREELMESRMRIESLSSQLSNLQKESRACLERIQELEDMLAKERDNSRRMLSDREREMAEIRDQMQQQLSDYEQLLDVKLALDMEISAYRKLLEGEEERLKLSPSPSSRVTVSRASSSRSVRTTRGKRKRVDVEESEASSSVSISHSASATGNVCIEEIDVDGKFIRLKNTSEQDQPMGGWEMIRKIGDTSVSYKYTSRYVLKAGQTVTVWAANAGVTASPPTDLIWKNQNSWGTGEDVKVILKNSQGEEVAQRSTVFKTTIPEEEEEEEEEPIGVAVEEERFHQQGAPRASNKSCAIM

These molecules were tested against T1, SMARCAD1 (endogenous, mouse ESCs) (mouse (endogenous in 46C ESCs)) (assay: co-IP; endogenous proteins from 46C mouse ESC nuclear extract (antibodies to SMARCAD1, TFIIIC63 or TFIIIC90); ethidium bromide and benzonase present; Western blot).

binding, binds:
SMC3 (endogenous, mouse ESCs) (from UniProt Q9CW03 1-1217)
TFIIIC220 (endogenous, mouse ESCs) (from UniProt Q8K284 1-2101)
B1
B2
B3
B4
B5

Reference: PMC10530723, “The Conserved Chromatin Remodeler SMARCAD1 Interacts with TFIIIC and Architectural Proteins in Human and Mouse” (Genes, 2023)
